Results: US9340582B2, “Bioconjugates of synthetic apelin polypeptides” (NOVARTIS AG, priority 2013, dated 2016)

B1: Example 19: Fc-apelin fusion SEQ ID NO: 126; linker GGGGS, polypeptide QRPRLC*HKGPMC* (protein)
chain: METDTLLLWVLLLWVPGSTG[skipping human IgG1 Fc with changes]GGGGSQRPRLCHKGPMC
modifications: disulfide cyclisation
B2: Example 6: Fc-Apelin fusion SEQ ID NO: 100; linker GGGGSGGGGS, polypeptide QRPRLC*HKGPMC*F (protein)
chain: METDTLLLWVLLLWVPGSTG[skipping human IgG1 Fc with changes]GGGGSGGGGSQRPRLCHKGPMCF
modifications: disulfide cyclisation
B3: Example 11: Fc-apelin fusion SEQ ID NO: 118; linker GS, polypeptide QRPRLC*HKGPMC*F (protein)
chain: METDTLLLWVLLLWVPGSTG[skipping human IgG1 Fc with changes]GSQRPRLCHKGPMCF
modifications: disulfide cyclisation
B4: Example 12: Fc-apelin fusion SEQ ID NO: 119; linker GG, polypeptide QRPRLC*HKGPMC*F (protein)
chain: METDTLLLWVLLLWVPGSTG[skipping human IgG1 Fc with changes]GGQRPRLCHKGPMCF
modifications: disulfide cyclisation
B5: Example 17: Fc-apelin fusion SEQ ID NO: 124; linker GS, polypeptide QRPRLC*HKGPMC* (protein)
chain: METDTLLLWVLLLWVPGSTG[skipping human IgG1 Fc with changes]GSQRPRLCHKGPMC
modifications: disulfide cyclisation
B6: Example 18: Fc-apelin fusion SEQ ID NO: 125; linker GG, polypeptide QRPRLC*HKGPMC* (protein)
chain: METDTLLLWVLLLWVPGSTG[skipping human IgG1 Fc with changes]GGQRPRLCHKGPMC
modifications: disulfide cyclisation
B7: Example 9: Fc-apelin fusion SEQ ID NO: 116; Fc C-terminal Lys replaced with Ala, linker GGGGSGGGGSGGGGS, polypeptide QRPRLC*HKGPMC*F (protein)
chain: METDTLLLWVLLLWVPGSTG[skipping human IgG1 Fc with changes]AGGGGSGGGGSGGGGSQRPRLCHKGPMCF
modifications: disulfide cyclisation
B8: Example 15: Fc-apelin fusion SEQ ID NO: 122; Fc C-terminal Lys replaced with Ala, linker GGGGS GGGGS GGGGS, polypeptide QRPRLC*HKGPMC* (protein)
chain: METDTLLLWVLLLWVPGSTG[skipping human IgG1 Fc with changes]AGGGGSGGGGSGGGGSQRPRLCHKGPMC
modifications: disulfide cyclisation
B9: Example 13: Fc-apelin fusion SEQ ID NO: 120; linker GGGGS, polypeptide QRPRLC*HKGPMC*F (protein)
chain: METDTLLLWVLLLWVPGSTG[skipping human IgG1 Fc with changes]GGGGSQRPRLCHKGPMCF
modifications: disulfide cyclisation

Experiment: not given
Conditions: not given

Surrogate activity-based Plasma stability t½, >1000 min:
B1, B2

Experiment: Surrogate activity-based plasma stability assay
Conditions: Table 2

Surrogate activity-based Plasma stability t½, >1000 min:
B3, B4, B5, B6, B7, B8, B9
